Results are given in words; binding and its absence hold for the method and conditions named. In cells and extracts the contact can be indirect. Some binding calls cover weakened binding; strength is not graded here. For some assays here: Tags and fused reporters may be left off the sequences shown.

Chains of the proteins cited; added tags and fusions are not shown. Lines headed by an entry give the natural chain unless they say otherwise; changes in a name come on top. A line that says so, or that is headed by a name, gives the form on record, which may keep a tag or linker. Residues count along the entry.
UniProt Q6UX68: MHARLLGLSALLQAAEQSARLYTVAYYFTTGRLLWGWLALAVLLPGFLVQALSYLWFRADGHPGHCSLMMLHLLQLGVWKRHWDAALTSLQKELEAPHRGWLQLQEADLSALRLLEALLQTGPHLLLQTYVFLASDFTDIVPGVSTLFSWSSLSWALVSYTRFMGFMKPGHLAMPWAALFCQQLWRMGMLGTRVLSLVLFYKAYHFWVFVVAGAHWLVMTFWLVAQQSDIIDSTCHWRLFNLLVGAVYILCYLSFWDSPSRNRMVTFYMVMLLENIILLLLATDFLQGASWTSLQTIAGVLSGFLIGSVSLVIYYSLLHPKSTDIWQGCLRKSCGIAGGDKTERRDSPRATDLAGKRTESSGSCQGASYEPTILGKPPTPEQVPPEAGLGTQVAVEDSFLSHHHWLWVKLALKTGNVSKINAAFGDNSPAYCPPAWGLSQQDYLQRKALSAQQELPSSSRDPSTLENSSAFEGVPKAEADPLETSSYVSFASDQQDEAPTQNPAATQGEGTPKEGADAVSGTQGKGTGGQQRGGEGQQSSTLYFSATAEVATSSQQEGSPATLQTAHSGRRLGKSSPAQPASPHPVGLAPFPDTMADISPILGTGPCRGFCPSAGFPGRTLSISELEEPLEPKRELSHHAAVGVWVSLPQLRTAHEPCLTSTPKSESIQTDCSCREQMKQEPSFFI
wild-type KIT (transfected in COS1 cells) (P10721, residues 26-976): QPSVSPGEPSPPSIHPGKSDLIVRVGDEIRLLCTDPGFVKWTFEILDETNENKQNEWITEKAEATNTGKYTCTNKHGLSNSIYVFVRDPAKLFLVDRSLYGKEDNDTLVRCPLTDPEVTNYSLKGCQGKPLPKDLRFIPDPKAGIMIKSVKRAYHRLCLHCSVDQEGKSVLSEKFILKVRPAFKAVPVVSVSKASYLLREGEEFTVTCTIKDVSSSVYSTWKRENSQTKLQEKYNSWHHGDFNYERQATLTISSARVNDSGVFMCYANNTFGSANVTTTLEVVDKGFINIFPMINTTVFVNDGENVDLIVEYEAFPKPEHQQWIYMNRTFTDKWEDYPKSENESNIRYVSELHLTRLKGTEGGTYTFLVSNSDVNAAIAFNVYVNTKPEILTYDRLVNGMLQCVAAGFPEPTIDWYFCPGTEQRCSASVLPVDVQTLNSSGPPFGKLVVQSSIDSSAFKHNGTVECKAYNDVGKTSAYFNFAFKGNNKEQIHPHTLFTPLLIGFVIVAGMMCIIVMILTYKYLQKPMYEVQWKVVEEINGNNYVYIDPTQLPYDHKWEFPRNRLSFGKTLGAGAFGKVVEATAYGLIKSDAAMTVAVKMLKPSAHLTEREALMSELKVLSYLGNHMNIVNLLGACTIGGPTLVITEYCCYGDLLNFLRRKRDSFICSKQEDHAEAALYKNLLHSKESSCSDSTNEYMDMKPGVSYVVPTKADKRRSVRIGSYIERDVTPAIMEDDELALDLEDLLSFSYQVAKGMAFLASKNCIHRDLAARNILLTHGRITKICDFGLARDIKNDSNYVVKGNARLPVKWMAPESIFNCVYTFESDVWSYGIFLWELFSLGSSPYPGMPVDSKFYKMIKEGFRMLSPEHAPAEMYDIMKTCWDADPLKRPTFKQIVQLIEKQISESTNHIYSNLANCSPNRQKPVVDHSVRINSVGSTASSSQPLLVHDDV
KIT/D816V (transfected in COS1 cells) (P10721, form named): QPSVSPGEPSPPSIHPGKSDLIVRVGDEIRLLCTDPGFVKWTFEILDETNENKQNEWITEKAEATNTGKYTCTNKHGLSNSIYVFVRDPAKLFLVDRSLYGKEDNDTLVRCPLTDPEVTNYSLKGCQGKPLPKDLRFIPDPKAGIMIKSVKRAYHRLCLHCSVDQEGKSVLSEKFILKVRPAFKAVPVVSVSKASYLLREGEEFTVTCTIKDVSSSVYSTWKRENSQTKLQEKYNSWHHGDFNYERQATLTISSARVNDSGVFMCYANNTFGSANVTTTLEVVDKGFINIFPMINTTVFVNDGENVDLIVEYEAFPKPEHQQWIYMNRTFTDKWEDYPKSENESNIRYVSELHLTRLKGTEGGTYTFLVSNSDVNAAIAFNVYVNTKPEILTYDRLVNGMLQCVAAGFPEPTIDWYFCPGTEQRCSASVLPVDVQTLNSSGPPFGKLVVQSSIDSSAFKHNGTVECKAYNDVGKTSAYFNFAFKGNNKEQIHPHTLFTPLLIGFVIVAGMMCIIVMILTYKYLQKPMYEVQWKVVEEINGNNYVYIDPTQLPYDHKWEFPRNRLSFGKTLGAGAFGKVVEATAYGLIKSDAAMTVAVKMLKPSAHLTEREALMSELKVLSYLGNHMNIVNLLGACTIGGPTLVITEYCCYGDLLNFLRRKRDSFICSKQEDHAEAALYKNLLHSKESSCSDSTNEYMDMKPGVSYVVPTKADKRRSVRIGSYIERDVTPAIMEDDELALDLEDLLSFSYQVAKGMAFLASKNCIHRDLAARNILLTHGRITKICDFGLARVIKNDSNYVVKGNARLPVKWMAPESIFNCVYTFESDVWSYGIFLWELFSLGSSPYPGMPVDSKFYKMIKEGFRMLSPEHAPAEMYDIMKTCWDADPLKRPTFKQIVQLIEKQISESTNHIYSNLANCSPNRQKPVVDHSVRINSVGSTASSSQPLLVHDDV
KIT/D814V, endogenous in P815 cells (P05532-2, form named): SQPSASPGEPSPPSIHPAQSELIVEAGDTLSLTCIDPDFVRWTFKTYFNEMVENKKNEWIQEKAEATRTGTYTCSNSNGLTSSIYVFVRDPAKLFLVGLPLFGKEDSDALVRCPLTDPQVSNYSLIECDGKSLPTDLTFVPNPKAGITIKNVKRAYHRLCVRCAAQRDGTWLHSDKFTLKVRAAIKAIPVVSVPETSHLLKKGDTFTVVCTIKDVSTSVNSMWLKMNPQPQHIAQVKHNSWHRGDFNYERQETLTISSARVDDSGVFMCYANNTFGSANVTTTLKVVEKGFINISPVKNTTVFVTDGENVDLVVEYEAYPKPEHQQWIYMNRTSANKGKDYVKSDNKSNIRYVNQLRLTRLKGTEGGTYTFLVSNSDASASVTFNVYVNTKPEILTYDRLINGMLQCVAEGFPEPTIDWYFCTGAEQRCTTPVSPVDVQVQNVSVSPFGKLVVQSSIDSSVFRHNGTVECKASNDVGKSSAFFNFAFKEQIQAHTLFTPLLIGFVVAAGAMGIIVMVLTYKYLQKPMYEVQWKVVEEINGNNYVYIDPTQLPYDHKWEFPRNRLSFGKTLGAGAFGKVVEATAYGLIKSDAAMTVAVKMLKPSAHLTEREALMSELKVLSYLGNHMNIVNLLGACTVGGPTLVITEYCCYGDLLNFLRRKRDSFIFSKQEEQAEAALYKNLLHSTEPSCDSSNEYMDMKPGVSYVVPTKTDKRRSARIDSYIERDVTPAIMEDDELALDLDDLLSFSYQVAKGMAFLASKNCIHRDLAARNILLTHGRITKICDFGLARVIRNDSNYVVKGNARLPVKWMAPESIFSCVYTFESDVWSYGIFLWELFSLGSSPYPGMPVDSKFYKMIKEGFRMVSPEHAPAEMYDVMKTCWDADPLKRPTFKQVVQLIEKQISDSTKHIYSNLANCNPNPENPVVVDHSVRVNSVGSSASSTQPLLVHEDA

Experiment [1] has as its target T1, FLAG-tagged murine XKR5 (murine) (UniProt Q5GH66).
T1 sequence: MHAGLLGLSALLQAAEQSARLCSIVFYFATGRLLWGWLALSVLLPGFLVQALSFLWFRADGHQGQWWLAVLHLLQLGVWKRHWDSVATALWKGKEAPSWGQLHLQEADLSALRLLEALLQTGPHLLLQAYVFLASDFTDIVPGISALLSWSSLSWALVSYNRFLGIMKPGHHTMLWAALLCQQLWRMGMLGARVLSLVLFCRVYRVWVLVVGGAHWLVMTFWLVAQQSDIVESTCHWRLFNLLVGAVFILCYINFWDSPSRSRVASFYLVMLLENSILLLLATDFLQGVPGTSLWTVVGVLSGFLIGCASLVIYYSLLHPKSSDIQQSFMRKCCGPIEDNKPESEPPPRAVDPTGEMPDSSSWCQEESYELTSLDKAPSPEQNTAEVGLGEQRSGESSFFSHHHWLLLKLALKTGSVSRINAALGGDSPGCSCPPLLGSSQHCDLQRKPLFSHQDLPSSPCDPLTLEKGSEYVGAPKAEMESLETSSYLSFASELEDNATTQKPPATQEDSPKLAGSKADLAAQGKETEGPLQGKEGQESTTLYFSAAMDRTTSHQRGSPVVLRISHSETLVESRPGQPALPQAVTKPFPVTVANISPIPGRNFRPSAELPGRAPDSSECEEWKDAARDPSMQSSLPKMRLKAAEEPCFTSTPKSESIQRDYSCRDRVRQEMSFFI
The experiment is described as follows: co-IP; COS1 cells co-transfected with FLAG-tagged XKR5 and KIT or KIT mutants (Fig. 2a: SCF for 2 min, 48 h after transfection); lysates immunoprecipitated with FLAG or KIT antibodies, blotted with KIT antibodies.

Experiment [2] deals with FLAG-tagged human XKR5 (human) (UniProt Q6UX68). The description is as above.
The target in experiment [3] is T2, XKR5, endogenous in P815 cells (mouse (endogenous in P815)) (UniProt Q5GH66).
T2 sequence: T1 sequence
The experiment can be described thus: co-IP; P815 cells lysed and immunoprecipitated with XKR5 antibody or rabbit IgG, SDS-PAGE and western blotting; endogenous proteins. A general note: A western blot detects proteins with antibodies after separation by electrophoresis.

On to “KIT/D816V (transfected in COS1 cells) (from UniProt P10721 26-976) (receptor)”, for which the binding entry in experiment [1] and in experiment [2] was “binds” each time.
Regarding “wild-type KIT (transfected in COS1 cells) (from UniProt P10721 26-976) (receptor)”, the binding result in experiment [1] and in experiment [2] was “no binding” each time.
As to “KIT/D814V, endogenous in P815 cells (from UniProt P05532-2 25-975) (receptor)”, the binding result in experiment [3] was “binds”.
